Reference: the supplement of paper PMC9262897, “Low-cost anti-mycobacterial drug discovery using engineered E. coli” (Nature Communications, 2022)
The source gives many values for each of these; only a part stands here.

Key:
E. coli TESEC Mtb Alr = assay: growth (OD600 after 10 h, mean); higher = more growth
Description: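 TESEC Mtb Alr E. coli grown in a two-dimensional dilution series of drug (µM) and arabinose (12 to 1e8 nM). Growth is read as OD600 after 10 h; values are means of 3 biological replicates.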

[1] = system: E. coli wild-type control; assay: growth (OD600 after 10 h); higher = more growth
Description: (§1)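 Chemical-genetic validation profiles: TESEC strains (Mtb Asd or DapB, arabinose-inducible) or the wild-type control grown in a two-dimensional dilution series of drug (µM) and arabinose. Growth is read as OD600 after 10 h in triplicate.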

[2] = system: E. coli TESEC strain (Mtb target enzyme); assay: growth (OD600 after 10 h); higher = more growth
Description: as §1

CC(C)c1ccc2oc3nc(N)c(C(=O)O)cc3c(=O)c2c1 [Amlexanox]
growth, E. coli TESEC Mtb Alr
Conditions | drug 250 µM | drug 500 µM | drug 1000 µM | drug 2000 µM
arabinose 12 nM | 0.269 | 0.193 | 0.113 | 0.0856
arabinose 24 nM | 0.271 | 0.189 | 0.118 | 0.0846
arabinose 48 nM | 0.261 | 0.194 | 0.118 | 0.081
arabinose 95 nM | 0.263 | 0.199 | 0.12 | 0.0809
arabinose 191 nM | 0.259 | 0.195 | 0.116 | 0.083
arabinose 381 nM | 0.265 | 0.192 | 0.116 | 0.0831
arabinose 763 nM | 0.259 | 0.199 | 0.119 | 0.0831
arabinose 1526 nM | – | 0.189 | 0.117 | 0.0832
arabinose 3052 nM | – | 0.193 | 0.118 | 0.0845
arabinose 6104 nM | – | 0.197 | 0.119 | 0.0819
arabinose 12207 nM | – | 0.187 | 0.12 | 0.0829
arabinose 24414 nM | 0.272 | 0.188 | 0.125 | 0.0827
arabinose 48828 nM | 0.265 | 0.188 | 0.135 | 0.0828
arabinose 97656 nM | 0.249 | 0.178 | 0.137 | 0.0839
arabinose 195312 nM | 0.242 | 0.173 | 0.127 | 0.0848
arabinose 390625 nM | 0.233 | 0.164 | 0.129 | 0.0902
arabinose 781250 nM | 0.221 | 0.165 | 0.129 | 0.0902
arabinose 1562500 nM | 0.218 | 0.16 | 0.132 | 0.0844
arabinose 3125000 nM | 0.209 | 0.161 | 0.129 | 0.0872
arabinose 6250000 nM | 0.212 | 0.152 | 0.127 | 0.0928
arabinose 12500000 nM | 0.197 | 0.151 | 0.125 | 0.0954
arabinose 25000000 nM | 0.19 | 0.146 | 0.122 | 0.0879
arabinose 50000000 nM | 0.177 | 0.136 | 0.117 | 0.0953
arabinose 100000000 nM | 0.128 | 0.112 | 0.0975 | 0.0947

CCOC(=O)[C@H](CCc1ccccc1)N[C@H]1CCc2ccccc2N(CC(=O)O)C1=O [Benazepril]
growth, E. coli TESEC Mtb Alr
Conditions | drug 250 µM | drug 500 µM | drug 1000 µM | drug 2000 µM
arabinose 12 nM | 0.198 | 0.118 | 0.112 | 0.111
arabinose 24 nM | 0.19 | 0.111 | 0.111 | 0.108
arabinose 48 nM | 0.189 | 0.111 | 0.111 | 0.111
arabinose 95 nM | 0.187 | 0.114 | 0.11 | 0.11
arabinose 191 nM | 0.186 | 0.11 | 0.11 | 0.114
arabinose 381 nM | 0.188 | 0.103 | 0.112 | 0.109
arabinose 763 nM | 0.185 | 0.102 | 0.106 | 0.115
arabinose 1526 nM | – | 0.102 | 0.104 | 0.108
arabinose 3052 nM | – | 0.0997 | 0.105 | 0.105
arabinose 6104 nM | – | 0.101 | 0.102 | 0.106
arabinose 12207 nM | – | 0.102 | 0.103 | 0.109
arabinose 24414 nM | 0.19 | 0.106 | 0.0989 | 0.104
arabinose 48828 nM | 0.214 | 0.108 | 0.102 | 0.107
arabinose 97656 nM | 0.234 | 0.123 | 0.113 | 0.115
arabinose 195312 nM | 0.242 | 0.17 | 0.13 | 0.13
arabinose 390625 nM | 0.234 | 0.189 | 0.164 | 0.156
arabinose 781250 nM | 0.238 | 0.207 | 0.196 | 0.195
arabinose 1562500 nM | 0.245 | 0.237 | 0.223 | 0.219
arabinose 3125000 nM | 0.254 | 0.246 | 0.248 | 0.24
arabinose 6250000 nM | 0.267 | 0.262 | 0.256 | 0.26
arabinose 12500000 nM | 0.254 | 0.252 | 0.252 | 0.258
arabinose 25000000 nM | 0.241 | 0.236 | 0.242 | 0.255
arabinose 50000000 nM | 0.236 | 0.235 | 0.234 | 0.243
arabinose 100000000 nM | 0.234 | 0.226 | 0.227 | 0.238

CN(Cc1cc(Br)cc(Br)c1N)C1CCCCC1 [Bromhexine] (TESEC target enzyme: Mtb Asd)
growth
Conditions | drug 1.7 µM | drug 3.9 µM | drug 8.8 µM | drug 19.8 µM | drug 44.4 µM | drug 100 µM
[1], arabinose 15560 nM | – | – | – | – | 0.147 | 0.173
[1], arabinose 28008 nM | – | – | – | – | 0.141 | 0.148
[1], arabinose 50414 nM | – | – | – | – | 0.159 | 0.163
[1], arabinose 90744 nM | – | – | – | – | 0.156 | 0.161
[1], arabinose 163340 nM | – | – | – | – | 0.17 | 0.165
[1], arabinose 294012 nM | – | – | – | – | 0.185 | 0.198
[1], arabinose 529221 nM | – | – | – | – | 0.201 | 0.211
[1], arabinose 952599 nM | – | – | – | – | – | 0.2
[1], arabinose 1714678 nM | – | – | – | – | – | 0.215
[1], arabinose 3086420 nM | – | – | – | – | – | 0.278
[1], arabinose 5555556 nM | – | – | – | – | – | 0.222
[1], arabinose 10000000 nM | – | – | – | – | 0.213 | 0.257
[2], arabinose 15560 nM | 0.134 | 0.144 | 0.144 | 0.14 | 0.136 | 0.119
[2], arabinose 28008 nM | 0.134 | 0.131 | 0.123 | 0.162 | 0.122 | 0.12
[2], arabinose 50414 nM | 0.151 | 0.164 | 0.16 | 0.141 | 0.119 | 0.124
[2], arabinose 90744 nM | 0.183 | 0.181 | 0.157 | 0.157 | 0.132 | 0.136
[2], arabinose 163340 nM | 0.18 | 0.192 | 0.171 | 0.179 | 0.125 | 0.134
[2], arabinose 294012 nM | 0.213 | 0.238 | 0.193 | 0.231 | 0.168 | 0.16
[2], arabinose 529221 nM | 0.29 | 0.283 | 0.262 | 0.286 | 0.235 | 0.244
[2], arabinose 952599 nM | 0.331 | 0.34 | 0.308 | 0.321 | 0.28 | 0.317
[2], arabinose 1714678 nM | 0.35 | 0.332 | 0.298 | 0.341 | 0.305 | 0.326
[2], arabinose 3086420 nM | 0.356 | 0.319 | 0.299 | 0.337 | 0.31 | 0.327
[2], arabinose 5555556 nM | 0.298 | 0.323 | 0.333 | 0.331 | 0.322 | 0.311
[2], arabinose 10000000 nM | 0.317 | 0.323 | 0.287 | 0.326 | 0.309 | 0.314
